The whole screen tested about 220,000 compounds, of which about 5,700 (2.6%) were called active. Inconclusive results, whose numbers are uncertain, are shown with a selection of clear calls. Calls follow the shape of the dose curve; as a rule, active = well fitted inhibition curve with a large enough effect; inconclusive = small, poorly fitted or top-dose-only effect; inactive = no such curve, though single readings can be large or run the other way. A potency beside an inconclusive call is a rough fit, not a confirmed value.
The compounds below were run against Lysine-specific demethylase 5B (Homo sapiens) (UniProt Q9UGL1) (assay: Primary screen for KDM5B Histone Demethylases FDH-coupled qHTS). Details: FDH-coupled NADH fluorescence (FDH is formaldehyde dehydrogenase); activity change, negative = inhibition: at 57.7 µM (top of the series) unless noted.
Chain of UniProt Q9UGL1 (Q9UGL1 whole entry, looked up): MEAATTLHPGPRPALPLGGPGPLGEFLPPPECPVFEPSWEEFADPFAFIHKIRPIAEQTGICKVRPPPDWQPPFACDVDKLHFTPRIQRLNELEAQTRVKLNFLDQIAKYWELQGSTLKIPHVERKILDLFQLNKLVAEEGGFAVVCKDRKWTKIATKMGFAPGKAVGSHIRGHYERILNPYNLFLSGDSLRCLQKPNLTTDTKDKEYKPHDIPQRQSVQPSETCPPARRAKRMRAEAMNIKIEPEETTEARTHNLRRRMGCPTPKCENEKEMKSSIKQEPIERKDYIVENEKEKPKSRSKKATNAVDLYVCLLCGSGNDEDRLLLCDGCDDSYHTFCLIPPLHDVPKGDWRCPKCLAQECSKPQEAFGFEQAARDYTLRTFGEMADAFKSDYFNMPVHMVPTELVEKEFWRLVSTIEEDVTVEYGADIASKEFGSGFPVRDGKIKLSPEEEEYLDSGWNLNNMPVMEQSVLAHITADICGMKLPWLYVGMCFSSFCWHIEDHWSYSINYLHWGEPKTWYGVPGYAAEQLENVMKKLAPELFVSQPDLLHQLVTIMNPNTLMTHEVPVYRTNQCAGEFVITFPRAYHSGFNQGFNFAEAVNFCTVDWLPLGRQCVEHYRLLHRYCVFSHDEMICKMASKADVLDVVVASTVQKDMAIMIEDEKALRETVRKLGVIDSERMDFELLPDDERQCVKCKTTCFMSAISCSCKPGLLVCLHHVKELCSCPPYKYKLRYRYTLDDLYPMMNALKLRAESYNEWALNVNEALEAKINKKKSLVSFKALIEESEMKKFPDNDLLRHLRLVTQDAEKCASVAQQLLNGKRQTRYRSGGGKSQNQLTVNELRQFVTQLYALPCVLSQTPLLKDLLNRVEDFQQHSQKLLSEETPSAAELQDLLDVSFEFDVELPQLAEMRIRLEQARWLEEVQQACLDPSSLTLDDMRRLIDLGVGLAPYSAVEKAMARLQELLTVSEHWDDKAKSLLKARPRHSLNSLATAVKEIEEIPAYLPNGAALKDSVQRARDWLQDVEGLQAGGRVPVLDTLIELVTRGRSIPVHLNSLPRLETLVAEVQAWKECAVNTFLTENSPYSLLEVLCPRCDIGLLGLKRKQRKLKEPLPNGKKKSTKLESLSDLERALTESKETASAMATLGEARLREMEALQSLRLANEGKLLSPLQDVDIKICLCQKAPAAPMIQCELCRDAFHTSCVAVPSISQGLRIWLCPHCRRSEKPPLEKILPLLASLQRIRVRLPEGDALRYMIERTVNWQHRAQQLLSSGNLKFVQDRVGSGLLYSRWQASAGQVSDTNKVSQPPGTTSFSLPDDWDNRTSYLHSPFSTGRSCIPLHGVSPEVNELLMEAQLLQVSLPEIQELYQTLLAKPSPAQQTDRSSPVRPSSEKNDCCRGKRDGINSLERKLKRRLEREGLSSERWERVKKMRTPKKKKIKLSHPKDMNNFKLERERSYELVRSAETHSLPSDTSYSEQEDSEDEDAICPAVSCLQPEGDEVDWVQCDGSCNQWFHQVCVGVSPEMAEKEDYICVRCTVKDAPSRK
Procedure, shortened: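 Measured: NADH fluorescence change, 30 min, RT. System: KDM5BΔAP 200 nM final, H3K4me3 peptide, α-KG, Fe(II), ascorbate, NAD⁺ plus FDH, pH 7.5 HEPES. Compounds: titrated, 10 min pre-incubation with enzyme.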
Also: nearly all actives have a fitted effect of over 70% in size.
For activity change, negative = inhibition in this document: 0% is about no effect.
Potency is read from the fitted curve at half-maximal effect; tags tell the direction and shape of the fitted curve.

SMILES	Potency	activity change, negative = inhibition
CCN(CC)C(=O)COc1cc2oc(=O)cc(C)c2cc1Cl	inconclusive: 25.1 µM [inhibitor, single point]	–
COc1ccc(C(=O)NCC(c2ccco2)S(=O)(=O)c2ccccc2)cc1 (stereo unspecified)	–	inconclusive: -31.4% [inhibitor]
CN1c2cc(C(=O)NCc3ccc(Cl)cc3)ccc2C(=O)N2CCCCCC21 (stereo unspecified)	inconclusive: 28.2 µM [inhibitor, partial curve, poor fit]	–
CC(=O)Nc1ccc(-c2c(-c3cccc(C)c3)nn(-c3ccc(F)cc3)c2OC(C)=O)cc1	active: 25.1 µM	–
CCOC(=O)Cn1nc(C)c(NC(=O)COc2ccc(OC)cc2)c1C	–	inactive: -2.09%
CCOc1ccc(S(=O)(=O)N(CC)CC)cc1NC(=O)C1CCN(c2ccc(C#N)cn2)CC1	–	inactive: 4.22%
CCSc1nc(N)c2c(n1)NC1=C(C(=O)CC(C)(C)C1)C2c1cccs1 (stereo unspecified)	inconclusive: 17.8 µM [inhibitor, partial curve, poor fit]	–
Cc1ccccc1C(=O)Nc1ccc(NC(=O)c2cccs2)cc1	inconclusive: 17.8 µM [inhibitor, single point]	–
CCOc1ccc(-c2csc3ncnc(Nc4cccc(O)c4)c23)cc1	inconclusive: 39.8 µM [inhibitor, single point]	–
COC(=O)[C@@H]1Cc2ncn(Cc3ccc(Cl)cc3)c2CN1CCCc1ccccc1	active: 35.5 µM	–
c1cc(-c2ccsc2)n2nc(C3CCC3)nc2n1	inconclusive: 31.6 µM [inhibitor, partial curve, poor fit]	–
CC(CCN1CCOCC1)NC(=O)c1cccc(NCC(=O)O)c1 (stereo unspecified)	inconclusive: 28.2 µM [inhibitor, partial curve, poor fit]	–
Cc1ccc(C(=O)N2CCN(c3cc(-c4ccc(Cl)cc4)[nH]n3)CC2)cc1F	–	inactive: -22.7%
CCNC(=O)c1ccccc1OCc1ccc(F)cc1	–	inactive: 10.9%
O=C(NCc1ccc2c(c1)OCO2)c1ccc(CN2CCc3ccccc3C2)cc1	–	inactive: 3.76%
NC(=O)c1c(NC(=O)c2noc3c2CCCC3)sc2c1CCCC2	inconclusive: 12.6 µM [inhibitor, partial curve, poor fit]	–
N#CC1(C(=O)Nc2cccc(Cl)c2)CCCC1	–	inactive: 18.4%
CN(Cc1ccc(-c2ccccc2)cc1)Cc1ccc(N(C)C)cc1	inconclusive: 25.1 µM [inhibitor, single point]	–
CCC(=O)N(C1CCOCC1)C1CCN(Cc2cccc(Cl)c2F)CC1	–	inactive: 10.1%
COc1cccc(C2C(C#N)=C(N)Oc3cc(C)n(CCCN4CCOCC4)c(=O)c32)c1 (stereo unspecified)	–	inactive: 1.07%
O=C(/C=C/c1ccc(OCc2ccccc2)cc1)c1cccnc1	inconclusive: 1.78 µM [inhibitor, partial curve, poor fit]	–
CCOCCCNCc1cccc(OCc2ccccc2)c1	–	inactive: 24.4%
CCOc1ccc(CCNC(=O)C2CCCN(c3nnc(C)c4c(C)n(-c5ccccc5)nc34)C2)cc1 (stereo unspecified)	inconclusive: 35.5 µM [inhibitor, partial curve, poor fit]	–
Cc1cccc(NC(=S)N/N=C2/CCCC(C)C2)c1 (stereo unspecified)	–	inactive: 0.924%

SMILES	Potency	activity change, negative = inhibition
CCc1[nH]c2c(CNC(=O)CC3C(=O)NCCN3C(C)C)cc(C)cc2c1C (stereo unspecified)	inconclusive: 28.2 µM [inhibitor, partial curve, poor fit]	–
CC1=C[C@@H](CN2CCC(O)CC2)[C@H](C(C)C)C[C@H]1Cc1nnc(-c2ccc(N(C)C)cc2)o1	inconclusive: 11.2 µM [inhibitor, partial curve]	–
C/C=C/C=C/C(=O)NC(C)c1ccc(SC)cc1 (stereo unspecified)	inconclusive: 39.8 µM [inhibitor, single point]	–
O=C(CCc1ncc(-c2ccccc2)o1)Nc1cc(F)cc(F)c1	inconclusive: 39.8 µM [inhibitor, single point]	–
O=C(Cc1c[nH]c2ncc(-c3cccnc3)cc12)Nc1ccc(C(F)(F)F)cc1	–	inactive: -26.7% [at 86.2 µM]
O=C1N(CCc2ccccc2)c2ccccc2C12CCN(Cc1ccncc1)C2 (stereo unspecified)	inconclusive: 6.31 µM [inhibitor, partial curve, poor fit]	–
COC(=O)c1ccc(CCNC(=O)c2nccnc2N)cc1	inconclusive: 20 µM [inhibitor, partial curve, poor fit]	–
CCc1cc(=O)oc2c(C)c(OC(C)C(=O)NCCCN3CCOCC3)ccc12 (stereo unspecified)	inconclusive: 22.4 µM [inhibitor, partial curve, poor fit]	–
Cc1cccc(CNC(=O)c2ccc(-c3nc(CS(=O)(=O)c4ccccc4)c(C)o3)cc2)c1	inconclusive: 17.8 µM [inhibitor, partial curve, poor fit]	–
Cc1ccc(CCNC(=O)Cn2nc(C)c3c(C)n(-c4ccc(C)cc4)nc3c2=O)cc1	inconclusive: 1.26 µM [inhibitor, full curve, poor fit]	–
CCOc1ccccc1NC(=O)CCc1ccc(-c2ccc(C)cc2)o1	–	inactive: -13.7%
Cc1cc(OC2CN([S+](=O)([O-])c3ccccc3)C2)ccc1F	inconclusive: 39.8 µM [inhibitor, partial curve]	–
O=C1CCN(C(=O)CCCc2ccccc2)CCCC(c2nc(-c3cccnc3)no2)CCN1 (stereo unspecified)	–	inactive: 11.5%
CCc1ccc(OC(=O)c2ccccc2C)c(Br)c1	–	inactive: 7.79%
Cc1nn(Cc2ccccc2)c(C)c1[C@@H]1C=C[C@@H](NC(=O)c2ccc(F)c(Cl)c2)C1	active: 28.2 µM	–
CN(C)S(=O)(=O)c1cccc(NC(=O)c2nc(-c3ccccc3)n(-c3ccccc3)n2)c1	inconclusive: 39.8 µM [inhibitor, single point]	–
O=C(CSc1ncccn1)c1ccc2c(c1)OCCO2	–	inactive: -13.1%
O=C(O)c1ccc(-c2ncc3cnc(C4=CCOCC4)cn23)cc1	inconclusive: 35.5 µM [inhibitor, partial curve, poor fit]	–
O=C(c1ccoc1)N1CCC(N2C(=O)C(O)C23CCCCC3)CC1 (stereo unspecified)	–	inactive: -13.7%
CCOc1ccc(-c2cc3nc(C4CCN(C(=O)OC(C)(C)C)CC4)c(C(=O)Nc4ccc(C(=O)OC)cc4)cn3n2)cc1	inconclusive: 28.2 µM [inhibitor, partial curve, poor fit]	–
Cc1cc(C)n2c(nc3ccccc32)c1C(=O)NN	inconclusive: 39.8 µM [inhibitor, single point]	–
CCC(=O)Nc1sc2c(c1C#N)CCC(C(C)(C)CC)C2 (stereo unspecified)	–	inactive: -9.27%
CCOC(=O)c1ccccc1NC(=O)CN1C(=O)NC(c2ccc(C)cc2)C2=C1COC2=O (stereo unspecified)	inconclusive: 28.2 µM [inhibitor, partial curve, poor fit]	–
COc1ccc(CN(C)Cc2cc(=O)oc3cc(C)c(C(C)C)cc23)cc1OC	inconclusive: 28.2 µM [inhibitor, single point]	–

SMILES	Potency	activity change, negative = inhibition
COc1cccc(NC(=O)Cc2c(C)c3ccc(OC)cc3oc2=O)c1	inconclusive: 14.1 µM [inhibitor, single point]	–
CN1C[C@@H](NC(=O)c2ccc3ccccc3c2)C[C@H]1c1nc(-c2ccc3c(c2)OCO3)no1	inconclusive: 39.8 µM [inhibitor, single point]	–
COCC(C)NC(=O)CSc1cc(C)c2cccc(C)c2n1 (stereo unspecified)	–	inactive: 1.37%
CC(=O)Nc1ccc(CNC2CCC(C)CC2)cc1 (stereo unspecified)	–	inactive: -3.59%
O=C(Nc1ccc2ncnc(N3CCCC3)c2c1)c1ccc(F)c(F)c1	inconclusive: 28.2 µM [inhibitor, single point]	–
Cc1c(Cl)cccc1NC(=O)NCC1CCN(CCc2ccccc2)C1 (stereo unspecified)	–	inactive: -6.48%
COc1ccc(Nc2nc(-c3c(C)noc3C)cc3cc(CO)oc23)cc1OC	inconclusive: 31.6 µM [inhibitor, single point]	–
CN1CCc2c(sc(/N=C/c3c[nH]c4ccccc34)c2C#N)C1	inconclusive: 1.78 µM [inhibitor, partial curve, poor fit]	–
FC(F)(F)c1cc(-c2cccs2)nc2c(-c3ccccc3)cnn12	–	inactive: 13.4%
Cc1nc(N2CCCCC2)ncc1C(=O)NC1CCOC2(CCOCC2)C1 (stereo unspecified)	–	inactive: -9.38%
N#Cc1ccccc1CNc1ccc(F)cc1Cl	–	inactive: 19%
O=C(O)CNS(=O)(=O)c1cccc(C(=O)/C=C/c2ccccc2Cl)c1	inconclusive: 31.6 µM [inhibitor, partial curve, poor fit]	–
Cc1nc2sc(-c3ccccc3)cc2c(=O)n1N	inconclusive: 39.8 µM [inhibitor, single point]	–
Cc1nn(C)c2c1c(-c1ccccc1)cc(=O)n2Cc1ccccc1F	inconclusive: 35.5 µM [inhibitor, partial curve, poor fit]	–
CCCc1noc(-c2cccn3c(CNC(=O)c4cccc(F)c4)nnc23)n1	active: 25.1 µM	–
COc1ccc(-c2noc([C@@H]3C[C@@H](O)CN3Cc3cccnc3)n2)cc1	inconclusive: 31.6 µM [inhibitor, partial curve, poor fit]	–
Oc1ccc(-c2nc(-c3ccc4c(c3)OCCCO4)cs2)cc1	inconclusive: 35.5 µM [inhibitor, single point]	–
Fc1cccc(/C=C/c2nc3ccccc3o2)c1	inconclusive: 22.4 µM [inhibitor, partial curve, poor fit]	–
Cc1ccccc1CSc1nnc(-c2c[nH]c3ccccc23)o1	–	inactive: -16.4%
COc1ccc(OC)c(NC(=O)NCc2nc(-c3cccc(Cl)c3)oc2C)c1	–	inactive: 12.1%
Cn1ncc2c(NCc3cccc(Cl)c3)ncnc21	–	inactive: -18.2%
Clc1cccc(C=Nc2cccc3c(N=Cc4cccc(Cl)c4)cccc23)c1	inconclusive: 17.8 µM [inhibitor, partial curve, poor fit]	–
N#Cc1cccc(C(=O)N2CCC3(CC2)CC(Cc2ccc(F)cc2)CCO3)c1 (stereo unspecified)	–	inactive: 13.8%
